Reference: the supplement of paper PMC4166925
± gives the standard deviation of the averaged measurements. In all, about 33,000 sequences were measured (“E-score (dimensionless, -0.5 to 0.5)”: median about -0.049, highest 2% from about 0.37 on). Some of the results follow.

These sequences were tested on T1, PmTbr T-box DNA-binding domain (GST fusion) (assay: PBM E-score of 8-mer (E-score (dimensionless, -0.5 to 0.5)); Tbr is Tbrain of the sea star Patiria miniata (Pm) or the sea urchin Strongylocentrotus purpuratus (Sp); higher = stronger binding preference; most listed sequences are background and not binding sites). Conditions: the construct has about 5 more residues each side.
T1 sequence: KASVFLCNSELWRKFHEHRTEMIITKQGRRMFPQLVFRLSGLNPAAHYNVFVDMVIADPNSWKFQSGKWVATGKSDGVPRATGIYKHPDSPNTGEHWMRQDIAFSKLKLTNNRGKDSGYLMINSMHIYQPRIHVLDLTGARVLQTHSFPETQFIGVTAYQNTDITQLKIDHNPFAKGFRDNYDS
Experimental: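 Universal protein-binding microarray (Agilent AMADID 016060, 60-bp probes with a 35-bp variable region) incubated with 200 nM GST-fused Patiria miniata Tbr T-box DNA-binding domain (residues 272-466) in PBS pH 7.5. Scored for every ungapped 8-mer (given with its reverse complement) by the Universal PBM Analysis Suite as E-score (modified Wilcoxon-Mann-Whitney enrichment, range -0.5 to 0.5; >0.45 counts as bound) and Z-score of median probe intensity. Two replicate arrays (datasets 1 and 2).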
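Further: 200 nM protein in PBS on universal arrays averaged over duplicate arrays.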

Row | Sequence | PBM E-score of 8-mer
1 | CCAGCATA | -0.177 ± 0.012
2 | ACACTTCA | 0.441 ± 0.017
3 | CCTGATAG | -0.0127 ± 0.018
4 | ATCGGTCC | -0.13 ± 0.025
5 | AGAGCTCG | -0.265 ± 0.02
6 | GTCTCGGA | -0.302 ± 0.052
7 | AGGCTTGC | -0.134 ± 0.056
8 | TATGCACA | -0.0819 ± 0.016
9 | GGCGCGTA | 0.0636 ± 0.0022
10 | GATATTCC | -0.08 ± 0.018
11 | CCCCCCTA | -0.151 ± 0.0074
12 | CGCATATA | 0.0397 ± 0.072
13 | TCCTAGGA | -0.252 ± 0.078
14 | ACTTTACC | 0.0103 ± 0.017
15 | TGGGATAA | 0.16 ± 0.078
16 | ATGATTCC | -0.137 ± 0.008
17 | GAGTCGAA | -0.0345 ± 0.049
18 | AGATCAGG | -0.207 ± 0.013
19 | GTTCTATA | -0.101 ± 0.12
20 | CTTGACCC | -0.326 ± 0.035
21 | CTTCATGC | -0.0971 ± 0.015
22 | AGCGTCAC | 0.306 ± 0.0054
23 | AATGACAT | -0.101 ± 0.054
24 | ACCTCAAG | 0.127 ± 0.013
25 | CATTGAAC | -0.0592 ± 0.0046

Row | Sequence | PBM E-score of 8-mer
26 | TAAAGTAA | -0.0267 ± 0.046
27 | AAGAGCAA | -0.095 ± 0.034
28 | ACATCGGT | -0.0547 ± 0.052
29 | CGCTAAAA | 0.344 ± 0.033
30 | GTGCGCAC | 0.178 ± 0.021
31 | CCCATAGA | -0.183 ± 0.044
32 | ACCGCCAG | 0.0385 ± 0.076
33 | AAGTGACG | 0.4043 ± 0.003
34 | GAAAGTAA | 0.109 ± 0.11
35 | TCGTGACA | 0.358 ± 0.017
36 | CCCCCGGG | -0.029 ± 0.0011
37 | AGCACGGG | -0.0965 ± 0.025
38 | CATACCTA | -0.215 ± 0.01
39 | CAATAGAG | -0.138 ± 0.09
40 | ACGTGCCG | 0.221 ± 0.02
41 | AGAAGGTC | -0.315 ± 0.034
42 | GGAGCAGA | -0.252 ± 0.0064
43 | ACCGAAGG | -0.121 ± 0.0021
44 | AGAAGTAT | -0.106 ± 0.017
45 | CGCGTAGA | -0.0748 ± 0.0063
46 | GAGGTGGA | 0.0566 ± 0.0027
47 | GCCGAGGA | -0.0743 ± 0.099
48 | TACTAAGA | -0.0479 ± 0.0069
49 | AAGACTGG | -0.0529 ± 0.0094
50 | CGACAGAG | 0.0367 ± 0.088

Row | Sequence | PBM E-score of 8-mer
51 | CGAGTCCG | -0.181 ± 0.027
52 | TGGAGCCA | -0.0952 ± 0.037
53 | CCTCGTCG | 0.217 ± 0.074
54 | CAGGGGTC | -0.17 ± 0.021
55 | AGATAGGC | -0.231 ± 0.06
56 | AACTCGGC | -0.107 ± 0.014
57 | GGGTCCAC | 0.022 ± 0.011
58 | ACTGCAGA | -0.167 ± 0.029
59 | CTGCGGAC | -0.0295 ± 0.018
60 | CTAGTTAA | -0.102 ± 0.053
61 | ACCACAGC | -0.156 ± 0.098
62 | CTGGAAAA | 0.0225 ± 0.034
63 | GCGAAAGC | 0.118 ± 0.025
64 | AGTACAGG | -0.0861 ± 0.022
65 | ATAATGTC | -0.151 ± 0.049
66 | AGCATTTG | -0.133 ± 0.041
67 | AAAGAAGG | -0.276 ± 0.03
68 | CCGTAACA | 0.1915 ± 0.0018
69 | CGGCTGGC | -0.0961 ± 0.12
70 | ATTTGTCA | 0.31 ± 0.0088
71 | ATGTAAGA | -0.219 ± 0.073
72 | ACACGACG | 0.0366 ± 0.042
73 | ACTTCCAA | -0.125 ± 0.081
74 | ATGCACAT | -0.138 ± 0.021
75 | ACCAGGGA | -0.0309 ± 0.029

Row | Sequence | PBM E-score of 8-mer
76 | CCGGGGAG | -0.223 ± 0.045
77 | AATCAAGT | -0.121 ± 0.085
78 | AACTATGT | 0.0405 ± 0.073
79 | ACTAGAAT | -0.145 ± 0.019
80 | CAAACCGC | 0.0543 ± 0.051
81 | ACGCGCAA | 0.00585 ± 0.00035
82 | GTGACTCA | 0.114 ± 0.0013
83 | ACCACCTG | 0.262 ± 0.056
84 | GCAGTCAC | 0.148 ± 0.048
85 | CACTCATA | 0.161 ± 0.033
86 | CGATGCCA | -0.0209 ± 0.052
87 | AATTGTTG | 0.103 ± 0.06
88 | GATAAAGA | -0.136 ± 0.046
89 | ACAGATTG | -0.0822 ± 0.024
90 | AAGGGCTC | -0.21 ± 0.039
91 | CAAAGTAA | -0.173 ± 0.019
92 | ACCCTTCG | -0.0575 ± 0.0092
93 | ACTTCAAA | -0.00641 ± 0.024
94 | AATTTGGA | -0.145 ± 0.087
95 | ACCAATGC | 0.0425 ± 0.027
96 | CGATATAA | -0.0508 ± 0.032
97 | CCGGAAAA | -0.229 ± 0.022
98 | AGAATTGG | -0.222 ± 0.0016
99 | CCATCCGG | -0.192 ± 0.012
100 | CTACACAG | -0.229 ± 0.11

Row | Sequence | PBM E-score of 8-mer
101 | GTAGGCAC | -0.0201 ± 0.055
102 | ACTTTCGG | 0.0864 ± 0.0095
103 | AACGATTC | -0.0317 ± 0.032
104 | CAAGTCGG | -0.0367 ± 0.12
105 | CCGGATAG | -0.145 ± 0.011
106 | ACCAAAAG | 0.0188 ± 0.099
107 | AATGCAGC | -0.175 ± 0.038
108 | GGGGCATA | -0.276 ± 0.013
109 | TCATAAGA | -0.171 ± 0.025
110 | TACATCCA | -0.0803 ± 0.022
111 | CGCGGTAC | 0.0216 ± 0.036
112 | ACCGAGTG | 0.00357 ± 0.044
113 | TAATTTCA | 0.0397 ± 0.061
114 | AGGCTGCG | 0.0356 ± 0.014
115 | CCTGGGCC | -0.358 ± 0.044
116 | CCAGTAAA | -0.0613 ± 0.0075
117 | GACTCTAA | -0.0315 ± 0.0096
118 | AGTATTCA | -0.12918 ± 8.5e-05
119 | TCATCCCA | 0.0516 ± 0.054
120 | CGACCGGA | 0.0935 ± 0.032
121 | GTGGAAGA | -0.195 ± 0.072
122 | TATTGAGA | -0.146 ± 0.028
123 | CCTTTAAG | -0.228 ± 0.031
124 | ACCGGCGG | -0.104 ± 0.017
125 | ACTGGCGG | -0.049 ± 0.07

Row | Sequence | PBM E-score of 8-mer
126 | GTAAGTCA | -0.0674 ± 0.031
127 | ACAGAGAA | 0.0164 ± 0.061
128 | CGGCCGAC | -0.0336 ± 0.091
129 | CTAGGTGC | 0.403 ± 0.008
130 | CGAAAAAG | 0.0183 ± 0.074
131 | ACGCCCGA | 0.241 ± 0.0051
132 | ACTTCCCA | 0.235 ± 0.01
133 | GCATCAAC | 0.0651 ± 0.026
134 | AAAATTTA | -0.0482 ± 0.12
135 | CCTGTAAG | 0.0373 ± 0.00038
136 | CTCGCATA | 0.00218 ± 0.012
137 | ACTAGTCA | 0.164 ± 0.044
138 | AAGGGTTG | -0.168 ± 0.083
139 | CCCGATAC | -0.0171 ± 0.087
140 | GTGCCAAA | 0.421 ± 0.017
141 | AAGTTACC | -0.0772 ± 0.12
142 | CTACGAAC | -0.0158 ± 0.05
143 | CCGGCCCA | -0.21 ± 0.028
144 | AAATATCA | 0.0842 ± 0.04
145 | ATACAGAT | -0.18 ± 0.039
146 | TCTGAACA | -0.0597 ± 0.01
147 | CTATTAGA | -0.169 ± 0.027
148 | CCAATAGG | -0.0695 ± 0.022
149 | ATGGTCTA | -0.164 ± 0.019
150 | GAAACGTC | -0.0475 ± 0.0032

Row | Sequence | PBM E-score of 8-mer
151 | AGAGTGAT | 0.239 ± 0.0043
152 | GTTAATTA | -0.00681 ± 0.058
153 | CTTTAACA | 0.193 ± 0.087
154 | AGCCGGGA | -0.163 ± 0.0056
155 | ATGTCAGC | 0.00315 ± 0.0099
156 | ACGGTTCT | 0.038 ± 0.039
157 | ATGTTCTC | 0.0209 ± 0.0069
158 | CTACTTTC | -0.0345 ± 0.024
159 | CGCGGCGA | 0.138 ± 0.047
160 | AACGGACG | -0.0533 ± 0.013
161 | AGTTATGA | -0.125 ± 0.029
162 | ATCGAGTA | -0.143 ± 0.01
163 | CTTTGTGC | -0.066 ± 0.038
164 | TCCACTCA | -0.188 ± 0.056
165 | CCGCATTA | -0.146 ± 0.0002
166 | ATACCCTC | -0.0136 ± 0.011
167 | AAAATAAA | -0.212 ± 0.14
168 | GTGTGCGA | 0.3565 ± 0.0019
169 | CGGTCGAC | 0.0978 ± 0.064
170 | GTTGAGGA | -0.0472 ± 0.011
171 | TGATGCCA | 0.0165 ± 0.0068
172 | CGGTTGTA | 0.039 ± 0.047
